According to publication PMC4336329 (PLoS ONE, 2015):
Among all 310,000 compounds or so, about 14,000 (4.5%) showed an effect of 50% or more. Effects have a minus sign here. The list shows a part of the results.

Target: human ether-à-go-go-related gene (hERG) potassium channel (human, UniProt Q12809)
Test: primary screen, population patch clamp on CHO cells stably expressing hERG
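Also: peak tail current of the secondary pulse compared with the same well before compound.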

human ether-à-go-go-related gene (hERG) potassium channel, sequence (Q12809 whole entry, looked up): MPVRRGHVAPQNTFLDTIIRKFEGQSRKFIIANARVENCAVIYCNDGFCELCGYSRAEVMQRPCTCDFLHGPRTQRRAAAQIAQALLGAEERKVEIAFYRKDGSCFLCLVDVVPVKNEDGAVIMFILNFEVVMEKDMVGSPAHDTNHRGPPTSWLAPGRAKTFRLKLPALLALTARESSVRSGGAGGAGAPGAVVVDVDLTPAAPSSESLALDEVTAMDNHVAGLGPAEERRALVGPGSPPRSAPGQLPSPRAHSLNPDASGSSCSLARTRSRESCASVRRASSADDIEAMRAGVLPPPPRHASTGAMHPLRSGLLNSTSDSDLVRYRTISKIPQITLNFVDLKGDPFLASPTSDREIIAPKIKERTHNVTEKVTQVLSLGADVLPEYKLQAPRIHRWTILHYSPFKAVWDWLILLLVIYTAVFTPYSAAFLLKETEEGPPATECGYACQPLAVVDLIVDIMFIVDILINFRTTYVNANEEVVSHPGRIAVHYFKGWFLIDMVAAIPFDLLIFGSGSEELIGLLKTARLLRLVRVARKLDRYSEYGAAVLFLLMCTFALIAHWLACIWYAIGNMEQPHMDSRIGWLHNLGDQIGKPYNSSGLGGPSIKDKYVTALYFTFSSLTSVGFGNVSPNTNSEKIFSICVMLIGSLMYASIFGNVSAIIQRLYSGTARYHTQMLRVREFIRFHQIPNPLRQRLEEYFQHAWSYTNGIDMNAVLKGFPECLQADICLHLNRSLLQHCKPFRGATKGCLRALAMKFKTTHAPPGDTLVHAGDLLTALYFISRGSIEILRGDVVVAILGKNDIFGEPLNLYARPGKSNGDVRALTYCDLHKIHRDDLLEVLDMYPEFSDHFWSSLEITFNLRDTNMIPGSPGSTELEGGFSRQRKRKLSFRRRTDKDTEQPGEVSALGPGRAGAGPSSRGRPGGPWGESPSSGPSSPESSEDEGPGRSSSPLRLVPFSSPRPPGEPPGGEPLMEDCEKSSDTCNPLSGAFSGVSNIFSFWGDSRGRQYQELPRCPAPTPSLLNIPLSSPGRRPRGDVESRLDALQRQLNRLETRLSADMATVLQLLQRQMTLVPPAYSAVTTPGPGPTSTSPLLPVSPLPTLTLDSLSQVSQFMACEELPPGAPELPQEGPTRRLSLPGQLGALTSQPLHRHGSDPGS

SMILES	hERG current change (%, negative = inhibition) at 10uM [%]
Cc1ccsc1/C=C(/C#N)C(=O)NCc1ccccc1	-10.1
OCCCc1nc2ccccc2n1CCOc1ccccc1	-5.7
CC(Nc1ccnc2cc(Cl)ccc12)c1ccc(S(N)(=O)=O)cc1 (stereo not drawn)	-26.7
Cc1cc(N(CCO)CCO)nc(-n2nc(C)cc2C)n1	0.367
COC(=O)c1cc(-c2ccc(Cl)cc2)n[nH]1	8.93
NNC(=O)Cn1c2ccccc2c2ccccc21	-1.74
Cc1oc(-c2ccccc2Cl)nc1CS(=O)CC(=O)NCCCN1CC(C)CC(C)C1 (stereo not drawn)	-15.7
CCCCC(=O)NC(c1ccc(C(C)C)cc1)c1ccc2cccnc2c1O (stereo not drawn)	20
O=C(NC1CCCCCC1)C1CCN(S(=O)(=O)c2c(Cl)cccc2Cl)CC1	11.6
CC(C)(C)NC(=O)C(=O)NC(=O)c1c(F)cccc1Cl	10.3
CCCOc1ccc(NC(=O)C2CCCNC2=O)cc1 (stereo not drawn)	12.5
Cc1cc(Cl)ccc1OCC(=O)Nc1ccccc1NS(=O)(=O)c1cccs1	2.93
Cc1ccc(N2C(=O)C3CCC(C)(C2=O)C3(C)C)cc1 (stereo not drawn)	6.09
COc1ccc(NC(=O)c2cccs2)cc1	13.2
CC(=O)c1cccc(NC(=S)N2CCN(S(=O)(=O)c3ccccc3)CC2)c1	6.6
O=C(Nc1ccc(Cl)cn1)c1cccnc1	-8.71
Cc1c(Cl)ccc2c(C(=O)NCCCn3nccc3C)cc(-c3ccccn3)nc12	5.11
Cc1cccc(Oc2ccc(S(=O)(=O)N3CCCCC3)cc2N)c1	-34.6
O=C(C1CN(C(=O)c2cc3cc(Cl)ccc3o2)c2ccccc2O1)N1CCCCC1 (stereo not drawn)	-29.5
CN=C1C([N+](=O)[O-])=CC=C2C1=NC1(CCCCC1)N2O	-4.59
COc1ccc(OCC(=O)OCC(=O)N2C(C)CCCC2C)cc1 (stereo not drawn)	4.15
O=C1c2ccccc2C(=O)c2c1oc(C(F)(F)F)c2C(=O)c1ccccc1	12.9
COc1cc(C(C)=O)ccc1OCC(O)CN1CCN(c2ccc(C)c(C)c2)CC1 (stereo not drawn)	-39.6

SMILES	hERG current change (%, negative = inhibition) at 10uM [%]
CC(NC(=O)Nc1ccccc1Cl)c1ccc2c(c1)OCO2 (stereo not drawn)	15.3
Cc1sc2ncnc(N3CCC(C(=O)N(C)CC(=O)Nc4ccc(Cl)c(C(F)(F)F)c4)CC3)c2c1C	3.47
CCO[C@@H]1OC(C(=O)N2CCN(Cc3ccc4c(c3)OCO4)CC2)=C[C@H](C2CC2)[C@H]1CCCO	-18.7
CSc1nc2ccc(NS(=O)(=O)c3ccc(CNC(C)=O)cc3)cc2s1	-0.24
COc1cc2cccc(OC)c(=O)c2c(O)c1OC	-1.84
Oc1ccccc1C1Nc2cccc3cccc(c23)N1	-0.719
CCCCNC(=O)c1cc(C)no1	11.1
Cc1ccc(-n2nc3c(=O)n(CCCC(=O)NCCc4ccccc4)nc(C)c3c2C)cc1	7.96
CCS(=O)(=O)N1N=C(c2ccccc2)CC1c1ccc2nccnc2c1 (stereo not drawn)	-16.3
C=CCNc1nc2c(c(=O)n(C)c(=O)n2C)n1CCCCCC	-23
COc1cccc(-n2c(-c3ccc4[nH]c(C)c(C)c4c3)n[nH]c2=S)c1	6.83
CC(=O)c1cccc(OCc2cc(C(=O)NCCC3=CCCCC3)no2)c1	7.85
CN(C)Cc1nc2ccccc2c(=O)n1CC#N	11.5
COc1cccc(/C=N/NC(=O)CCC(=O)Nc2ccc(Br)cc2)c1	20.4
CC(=O)NCCCc1c[nH]c2ccc(Cl)cc12	4.59
CC1(C)OC(=O)N(CC(=O)Nc2ccccc2)C1(C)O (stereo not drawn)	36.4
Cc1sc2nc(SCc3nc(-c4cccs4)no3)n(-c3ccccc3)c(=O)c2c1C	14.8
Cc1cccn2c(=O)nc(SCC(=O)NCc3ccco3)nc12	1.37
CN(CCc1ccccn1)C(=O)c1ccc(OC(F)(F)F)cc1.Cl	5.41
Cc1ccc(N(CCC(=O)O)S(=O)(=O)c2cccc(C(F)(F)F)c2)cc1	8.11
Cc1nnc(N2C(=O)C(O)=C(C(=O)c3ccco3)C2c2ccc(C(C)(C)C)cc2)s1 (stereo not drawn)	6.25
Cc1ccc(SCC(=O)Nc2ccccc2N2CCOCC2)cc1	-16.7
